Data from PubChem BioAssay AID1671193 (National Center for Advancing Translational Sciences (NCATS), 2021).
The whole screen tested about 150,000 compounds, of which about 180 (0.12%) were called active. The inconclusive results got no clear call from the source; some entries with a clear call stand among them for comparison. The call rests on the fitted dose curve; in most records, active means well fitted cell-killing curve with a large enough effect; inconclusive means small, poorly fitted or top-dose-only effect, or effect the other way; inactive means flat fitted curve, though single readings scatter. A potency beside an inconclusive call is a rough fit, not a confirmed value.

Assay: GF-AFC viability counterscreen for inhibitors of alpha-synuclein gene (SNCA) expression; further: nearly all actives have a fitted effect of over 30% in size;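 on activity change, negative = cytotoxicity: 0% = DMSO-treated cells and -100% = medium-only wells without cells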
Details: HEK-293-SNCA-luc viability, GF-AFC fluorescence, 24 h; activity change, negative = cytotoxicity: at 57.1 µM (top of the series) unless noted
Method in brief: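 HEK-293-SNCA-luc cells (1500/well) plated 24 h, then exposed 24 h to a dilution series; GF-AFC added 30 min at 37C, fluorescence 405/540 nm; normalised to medium-only and DMSO wells, Hill fit.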
Potency means the concentration at half of the fitted maximal effect; tags describe the fitted curve by direction and shape.

SMILES | Potency | activity change, negative = cytotoxicity
O=C(NCc1cccc(F)c1)c1ccc2c(c1)CC(=O)N2Cc1ccccc1 | inactive | 
CCC1Oc2ccc(NC(=O)c3ccc4c(c3)OCO4)cc2CN(Cc2ccccc2)C1=O (stereo unspecified) | inactive | 
O=C(C1CCCO1)N1CCc2c(n(Cc3ccccc3)n(-c3ccccc3)c2=O)C1 (stereo unspecified) | inactive | 
CN1CCN(Cc2c(O)ccc3cc(-c4ccccc4)c(=O)oc23)CC1 | inconclusive: 15.8 µM [rising, partial curve] | 
Cc1ccc(C(=O)N2CCCC(C(=O)N3CCC(c4nc5ccncc5[nH]4)CC3)C2)cc1 (stereo unspecified) | inactive | 
COc1ccc(CCNC(=O)CSc2nc3ccccc3nc2Cc2ccc(Cl)cc2)cc1OC | inconclusive: 3.16 µM [cytotoxic, single point] | 
Cn1c(=O)c(-c2ccc(Cl)cc2)nc2cnc(Oc3ccccc3)nc21 | inconclusive: 22.4 µM [cytotoxic, single point] | 
O=C(O)CCCC[P+](c1ccccc1)(c1ccccc1)c1ccccc1 | inactive | 
Cc1ccc(C(=O)c2cn(Cc3cccc(F)c3)c3nc(C)ccc3c2=O)cc1 | inconclusive: 25.1 µM [cytotoxic, partial curve, poor fit] | 
Cc1ccc(NC(=O)Cn2cc(C(=O)c3cccs3)c3ccccc32)cc1C | inconclusive: 35.5 µM [cytotoxic, single point] | 
COc1ccccc1-c1ccc(C(=O)N2CCC(NC(=O)c3ccc(C)cc3)CC2)cc1 |  | inactive: 1.95% [at 12.5 µM]
CCOc1ccc(S(=O)(=O)NCCc2csc3nc(-c4cccc(C)c4)nn23)cc1 | inconclusive: 20 µM [cytotoxic, single point] | 
Cn1ncc2c(C(=O)NCc3cccc(Cl)c3)cc(C(C)(C)C)nc21 | inactive | 
CCOc1ccc(NC(=O)c2ncn(-c3ccccc3)n2)cc1 | inactive | 
COc1ccc(-c2cc3nc4c(c(=O)n3[nH]2)CN(C(=O)c2ccc(C)cc2)CC4)cc1 | inactive | 
O=C(Nc1ccc(OC(F)(F)F)cc1)C(NS(=O)(=O)c1cccc2nsnc12)c1ccccc1 (stereo unspecified) | inconclusive: 28.2 µM [cytotoxic, partial curve, poor fit] | 
Cc1ccc(NC(=O)Cn2c(=O)n(-c3ccc(F)cc3)c(=O)c3c2cc(C)n3C)c(C)c1 | inconclusive: 44.7 µM [cytotoxic, partial curve, poor fit] | 
COc1c(C)c(C(=O)c2ccc(N)c(C(=O)O)c2)n2ccccc12 | inconclusive: 15 µM [cytotoxic, partial curve] | 
Cc1ccc(-c2noc([C@@H]3Cc4nc[nH]c4CN3Cc3ccc(F)cc3)n2)cc1 | inconclusive: 56.2 µM [cytotoxic, single point] | 
CCNc1ncc2nc(-c3cccc(C#N)c3)c(=O)n(C)c2n1 | inconclusive: 17.8 µM [rising, partial curve, poor fit] | 
COc1ccc(OC)c(CNC(=O)c2ccc3c(c2)N(C)C2CCCCN2C3=O)c1 (stereo unspecified) |  | inactive: 2.03% [at 12.5 µM]

SMILES | Potency | activity change, negative = cytotoxicity
COc1ccc(-c2c(C(=O)NCC3CCCCC3)nc3sccn23)cc1 | inconclusive: 14.1 µM [cytotoxic, partial curve, poor fit] | 
COc1ccc(-n2c(=O)c(-c3cc(F)cc(F)c3)nc3cnc(N(C)C)nc32)cc1 | inconclusive: 10 µM [rising, partial curve, poor fit] | 
O=C(OCc1ccccc1)N1CCOCC12CCN(Cc1cccnc1)CC2 | inactive | 
O=C(Nc1ccc(Cl)cc1)c1cc2c(Cl)nc3ccccc3c2s1 | inconclusive: 7.08 µM [rising, single point] | 
O=C(Nc1ccc(S(=O)(=O)N2CCCCC2c2cccnc2)cc1)c1ccc(F)cc1 (stereo unspecified) | inconclusive: 25.1 µM [cytotoxic, single point] | 
C=CCc1ccccc1OCCn1c(C2CC(=O)N(Cc3ccc(F)cc3)C2)nc2ccccc21 (stereo unspecified) | inconclusive: 22.4 µM [cytotoxic, single point] | 
COc1ccc(CNC(=O)c2c(C)noc2-c2cccc(F)c2)cc1 | inactive | 
O=c1cc(N2CCOCC2)oc2c(-c3ccccc3Oc3ccccc3)nccc12 | inconclusive: 8.91 µM [cytotoxic, single point] | 
O=C1COc2ccc(OCc3cccnc3)nc2CN1CCOc1ccccc1 | inactive | 
N[C@@H](Cc1ccccc1)C(=O)N1CCC2(CC1)C(=O)NCN2C(=O)C1CCCC1 | inconclusive: 4.47 µM [cytotoxic, partial curve, poor fit] | 
CO[C@H]1C[C@@H]2CC[C@@H](C)[C@@](O)(O2)C(=O)C(=O)N2CCCC[C@@H]2C(=O)O[C@H]([C@@H](C)C[C@@H]2CC[C@H](O)[C@H](OC)C2)CC(=O)[C@H](C)C=C(C)[C@@H](O)[C@@H](OC)C(=O)[C@H](C)C[C@H](C)C=CC=CC=C1C | inconclusive: 7.64 µM [cytotoxic, partial curve, poor fit] | 
CCCc1c(C(C)C)nc(C(C)C)c([C@@H](C)O)c1-c1ccc(F)cc1O | inconclusive: 21.2 µM [cytotoxic, single point] | 
COc1cccc(CNC(=O)CN2C(=O)N(c3c(C)cccc3C)S(=O)(=O)c3ccccc32)c1OC | inconclusive: 39.8 µM [cytotoxic, partial curve, poor fit] | 
COc1cccc(Cn2c(=O)c(-c3cccs3)nc3cnc(N4CCN(C)CC4)nc32)c1 | inconclusive: 12.6 µM [rising, partial curve] | 
CCN1CCN(c2ccc(-c3nc(CCCc4ccccc4)no3)cn2)CC1 | inactive | 
COCc1nncn1C1CCN(S(=O)(=O)c2cc(Cl)ccc2OC)CC1 | inconclusive: 1.12 µM [rising, full curve, poor fit] | 
Cc1ccc(C(=O)N2CCN(c3ccc(F)cc3)CC2)cc1NC(=O)c1nsc2ccccc12 | inconclusive: 8.91 µM [rising, partial curve] | 
Cn1c2c(c3cc(F)ccc31)CN(C(=O)Nc1ccc(F)c(Cl)c1)CC2 | inconclusive: 22.4 µM [cytotoxic, single point] | 
CCNC(=O)C1CCCN(c2nnc(C)c3c(C)n(-c4ccc(C)cc4)nc23)C1 (stereo unspecified) | inconclusive: 22.4 µM [cytotoxic, partial curve, poor fit] | 
COc1cccc(CNC(=O)CNC(=O)c2cccc(-c3ccc(C(F)(F)F)cc3)c2)c1 | inconclusive: 6.31 µM [cytotoxic, single point] | 
COc1ccccc1N1CCN(C2CCCN(Cc3nc(C(N)=O)no3)C2)CC1 (stereo unspecified) | inactive | 

SMILES | Potency | activity change, negative = cytotoxicity
O=C1CC(c2ccccc2)N(C(=O)CNC(=O)c2ccoc2)CCCCCCN1 (stereo unspecified) | inconclusive: 3.55 µM [cytotoxic, partial curve, poor fit] | 
COc1cc(N2CCOCC2)ccc1Nc1ncc(Cl)c(Nc2ccccc2NS(C)(=O)=O)n1 | inactive | 
CCN(C(=O)Cn1cccc1-c1nc(-c2ccc(OC)c(F)c2)no1)c1ccccc1 | inconclusive: 14.1 µM [cytotoxic, partial curve, poor fit] | 
COc1cccc(-c2ccccc2NC(=O)C2CCN(Cc3cc(F)ccc3F)CC2)c1 | inconclusive: 39.8 µM [cytotoxic, single point] | 
CCOC(=O)c1cc(C#N)c(N2CCC(C(=O)NS(=O)(=O)Cc3ccccc3)CC2)nc1C | inconclusive: 8.44 µM [rising, partial curve, poor fit] | 
Cc1ccc(OCC(=O)NCC2(N3CCOCC3)CCCCC2)cc1C | inconclusive: 10 µM [rising, partial curve, poor fit] | 
COCCNc1c(-c2noc(C)c2C(=O)Nc2ccc(OC)nc2)cnn1C | inconclusive: 31.6 µM [cytotoxic, partial curve, poor fit] | 
COc1ccc(-c2noc(-c3ccc(N4CCCC4)c([N+](=O)[O-])c3)n2)cc1 | inconclusive: 5.01 µM [rising, full curve, poor fit] | 
CCCCC1CN(c2cccc(-c3ccccc3)c2)C(=O)CN1C(=O)c1ncoc1C (stereo unspecified) | inconclusive: 4.47 µM [cytotoxic, single point] | 
COc1ccc(-c2nc3scc(CCNS(=O)(=O)c4ccccc4F)n3n2)cc1 | inconclusive: 14.1 µM [cytotoxic, partial curve] | 
Cc1nc2cnc(N(C)C)nc2n(Cc2cccs2)c1=O | inconclusive: 3.16 µM [cytotoxic, full curve, poor fit] | 
CCn1c(CNC(=O)c2ccc(OC)cc2)nnc1SCC(=O)Nc1ccccc1 | inconclusive: 39.8 µM [cytotoxic, single point] | 
COc1ccc(Cn2c(=O)n(-c3ccccc3C)c(=O)c3c4c(sc32)CN(C(C)=O)CC4)cc1 | inconclusive: 8.91 µM [cytotoxic, partial curve, poor fit] | 
COc1ccc(-c2cc3c(=O)n(CCNC(=O)c4cccc5[nH]ccc45)ccn3n2)cc1 | inactive | 
COc1ccc2nc(NC(=O)c3nc(S(=O)(=O)Cc4ccccc4)ncc3Cl)sc2c1 | inconclusive: 39.8 µM [cytotoxic, partial curve, poor fit] | 
COc1cc(CNC(=O)c2ccc3c(c2)N(C(=O)c2ccc(F)cc2)CC3)cc(OC)c1 | inconclusive: 31.6 µM [cytotoxic, partial curve, poor fit] | 
C=CC(=O)N1CC(N2CCN(C(=O)CNc3cc(C4CC4)c(Cl)cc3O)CC2)C1 | inactive | 
CCN(CC)CCNC(=O)c1cc(-c2ccc(Br)s2)nc2ccccc12 | inconclusive: 31.6 µM [cytotoxic, single point] | 
Cc1ccc(NC(=O)N2CCc3c(C(=O)N(C)C)cccc32)cc1 | inactive | 
